Reference: PMC4336329 (PLoS ONE, 2015)
Screen size: about 310,000 compounds; about 14,000 (4.5%) showed an effect of 50% or more. The effect is printed as a negative number. The list shows a part of the results.

These compounds were tested against human ether-à-go-go-related gene (hERG) potassium channel (human, UniProt Q12809) (assay: primary screen, population patch clamp on CHO cells stably expressing hERG).
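Further: peak tail current of the secondary pulse compared with the same well before compound.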

human ether-à-go-go-related gene (hERG) potassium channel, sequence (Q12809 whole entry, looked up): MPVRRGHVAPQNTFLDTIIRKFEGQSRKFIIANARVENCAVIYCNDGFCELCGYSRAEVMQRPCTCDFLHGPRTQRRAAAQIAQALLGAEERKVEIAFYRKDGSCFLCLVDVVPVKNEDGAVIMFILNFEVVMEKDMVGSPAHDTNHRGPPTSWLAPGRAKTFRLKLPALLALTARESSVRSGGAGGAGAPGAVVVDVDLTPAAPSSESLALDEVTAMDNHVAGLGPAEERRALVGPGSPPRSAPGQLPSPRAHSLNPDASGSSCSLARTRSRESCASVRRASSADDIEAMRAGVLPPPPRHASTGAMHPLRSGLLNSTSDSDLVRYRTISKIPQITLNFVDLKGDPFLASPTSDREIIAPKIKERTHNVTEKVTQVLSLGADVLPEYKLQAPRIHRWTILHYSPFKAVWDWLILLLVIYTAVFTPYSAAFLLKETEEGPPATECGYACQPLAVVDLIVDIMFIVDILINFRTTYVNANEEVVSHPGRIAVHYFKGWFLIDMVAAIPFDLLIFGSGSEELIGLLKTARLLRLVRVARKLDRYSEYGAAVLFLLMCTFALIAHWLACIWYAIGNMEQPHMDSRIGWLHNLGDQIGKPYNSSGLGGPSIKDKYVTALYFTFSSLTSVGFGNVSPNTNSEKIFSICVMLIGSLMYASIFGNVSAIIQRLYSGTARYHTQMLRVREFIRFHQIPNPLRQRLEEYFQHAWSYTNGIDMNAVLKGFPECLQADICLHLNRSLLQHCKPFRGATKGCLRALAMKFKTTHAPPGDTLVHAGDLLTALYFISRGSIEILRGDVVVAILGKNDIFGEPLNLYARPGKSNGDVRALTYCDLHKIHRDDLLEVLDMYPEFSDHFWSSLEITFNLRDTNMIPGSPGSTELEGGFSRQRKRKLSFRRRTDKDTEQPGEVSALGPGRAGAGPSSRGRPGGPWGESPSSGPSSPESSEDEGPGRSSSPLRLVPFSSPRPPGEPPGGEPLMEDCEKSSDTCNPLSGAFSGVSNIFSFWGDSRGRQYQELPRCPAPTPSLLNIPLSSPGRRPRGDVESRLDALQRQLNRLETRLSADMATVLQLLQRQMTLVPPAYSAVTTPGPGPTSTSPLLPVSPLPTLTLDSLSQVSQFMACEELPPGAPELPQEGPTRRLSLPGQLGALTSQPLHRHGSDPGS

For `O=C(CCCN1C(=O)c2cccc3cccc(c23)C1=O)N1CCN(c2ncccn2)CC1`, which “hERG current change (%, negative = inhibition) at 10uM” value is on record?
The value was 2.04%.

`O=C1N[C@@H](Cc2ccccc2)[C@@H](c2ccco2)O1` was tested. Which “hERG current change (%, negative = inhibition) at 10uM” value did it give?
The value was 14.6%.

How did the “hERG current change (%, negative = inhibition) at 10uM” value turn out when `CCn1c(NCc2ccco2)nc2ccccc21` was run?
The value was 2.38%.

`COc1ccc(C2=NN(C(=O)CCC(=O)O)C(c3ccc(F)cc3)C2)cc1` (stereo not shown) was tested. Which “hERG current change (%, negative = inhibition) at 10uM” value did it give?
Its value is 5.89%.

`COC(=O)C(C(=O)OC)C(CC(=O)c1ccc(C)cc1)c1cc(OC)c(OC)c(OC)c1` (stereo not shown) was tested. Which “hERG current change (%, negative = inhibition) at 10uM” value did it give?
Its value is 5.41%.

Which “hERG current change (%, negative = inhibition) at 10uM” value does the source give for `CCN1C(=O)[C@@H]2[C@H](C1=O)[C@@H]1C(=O)Nc3ccccc3C(=O)N1[C@@H]2c1ccc(Br)cc1` here?
The value was -47.3%.

With `[Cl-].c1ccc(C[n+]2cccc(-c3ccccc3)c2)cc1` as the compound, how does the “hERG current change (%, negative = inhibition) at 10uM” value read?
Its value is -2.49%.

`Cc1nnc(SCc2nc3sc4c(c3c(=O)[nH]2)CCCC4)n(N)c1=O` was tested. Which “hERG current change (%, negative = inhibition) at 10uM” value did it give?
The value was 1.55%.

Which “hERG current change (%, negative = inhibition) at 10uM” value does the source give for `CN(CC(=O)NC1CCCC1)S(=O)(=O)c1cnc[nH]1` here?
Its value is 25.1%.

With `S=C(NCCc1ccccc1)NC1CCCCCC1` as the compound, how does the “hERG current change (%, negative = inhibition) at 10uM” value read?
The value was -13.7%.

`COC(=O)c1ccccc1COn1c(=O)c[n+]([O-])c2ccccc21` was tested. Which “hERG current change (%, negative = inhibition) at 10uM” value did it give?
The value was -25.7%.

Which “hERG current change (%, negative = inhibition) at 10uM” value does the source give for `COc1ccccc1N1CCN(C(c2cc3cc(C)ccc3[nH]c2=O)c2nnnn2C2CCCC2)CC1` (stereo not shown) here?
Its value is -13.1%.

With `CCOc1ccc(N2CC(C(=O)Nc3c(C)n(C)n(-c4ccccc4)c3=O)CC2=O)cc1` (stereo not shown) as the compound, how does the “hERG current change (%, negative = inhibition) at 10uM” value read?
The value was 22.6%.

`CCOCCCNC(=S)NNC(=O)CCn1nc(C)c(Br)c1C` was tested. Which “hERG current change (%, negative = inhibition) at 10uM” value did it give?
The value was 6.63%.

Which “hERG current change (%, negative = inhibition) at 10uM” value does the source give for `CCOc1ccc2nc(NC(NC(=O)CC)(C(=O)OC)C(F)(F)F)sc2c1` (stereo not shown) here?
Its value is -17.7%.

How did the “hERG current change (%, negative = inhibition) at 10uM” value turn out when `Cc1ccc(-c2nnn(CC(=O)N(c3ccccc3)C(C(=O)NC3CCCC3)c3ccco3)n2)o1` (stereo not shown) was run?
Its value is -20.9%.

How did the “hERG current change (%, negative = inhibition) at 10uM” value turn out when `CN1CCN(CC(=O)N2N=C(c3cccs3)CC2c2ccco2)CC1` (stereo not shown) was run?
The value was -31.1%.

For `CCn1ccnc1CN(C)C(=O)c1cc(COc2ccc(OC)c3ccccc23)on1`, which “hERG current change (%, negative = inhibition) at 10uM” value is on record?
Its value is -25.9%.

For `CNS(=O)(=O)c1ccc(Oc2ccc(S(=O)(=O)NC)cc2)cc1`, which “hERG current change (%, negative = inhibition) at 10uM” value is on record?
The value was 13.2%.

How did the “hERG current change (%, negative = inhibition) at 10uM” value turn out when `CN1CCN(c2c([N+](=O)[O-])cnc3ccccc23)CC1.Cl` was run?
Its value is -11.8%.

Which “hERG current change (%, negative = inhibition) at 10uM” value does the source give for `CCc1ccccc1NC(=S)N(CCN(C)C)C(C)c1ccccn1` (stereo not shown) here?
The value was -30.8%.

`CCOC(=O)COc1ccc2c(c1)C(=O)CC1(CCCCC1)O2` was tested. Which “hERG current change (%, negative = inhibition) at 10uM” value did it give?
Its value is -1.25%.

`CCCCC(=O)NC(c1cccc([N+](=O)[O-])c1)c1c(OC(C)=O)ccc2ccccc12` (stereo not shown) was tested. Which “hERG current change (%, negative = inhibition) at 10uM” value did it give?
Its value is -5.12%.

For `Cc1cc(=O)oc(C)c1C(=O)Nc1cnc2ccccc2c1`, which “hERG current change (%, negative = inhibition) at 10uM” value is on record?
Its value is -21.2%.

With `CCS(=O)(=O)N1CCCC(C(=O)NCc2cccc(OC)c2)C1` (stereo not shown) as the compound, how does the “hERG current change (%, negative = inhibition) at 10uM” value read?
The value was 0.215%.

With `CC(C)c1oc(=O)cc2c1[C@@H](O)[C@H]1OC(=O)[C@@]3(C)CC[C@@H](O)[C@@]2(C)C13` (stereo partly shown) as the compound, how does the “hERG current change (%, negative = inhibition) at 10uM” value read?
The value was 10.2%.

With `CCOc1ccc(C(=S)N2CCN(C)CC2)cc1` as the compound, how does the “hERG current change (%, negative = inhibition) at 10uM” value read?
Its value is -82.2%.

How did the “hERG current change (%, negative = inhibition) at 10uM” value turn out when `O=C(CN1CCN(S(=O)(=O)c2cccc(Br)c2)CC1)N1CCCCC1` was run?
Its value is -14.8%.

For `O=C(Cc1ccc(Br)cc1)N1CCN(Cc2ccccc2)CC1`, which “hERG current change (%, negative = inhibition) at 10uM” value is on record?
Its value is -30.9%.

How did the “hERG current change (%, negative = inhibition) at 10uM” value turn out when `O=C(COc1ccc(C(=O)c2ccccc2)cc1)NC1CCCCCC1` was run?
Its value is -21.9%.

How did the “hERG current change (%, negative = inhibition) at 10uM” value turn out when `O=C(CSc1nnc(-c2ccc(Cl)cc2Cl)n1C1CCCCC1)NC1CCS(=O)(=O)C1` (stereo not shown) was run?
The value was -23.2%.

`Cc1ccc(OCC(=O)NC2CCS(=O)(=O)C2)cc1` (stereo not shown) was tested. Which “hERG current change (%, negative = inhibition) at 10uM” value did it give?
The value was 1.19%.

For `CN(Cc1ccccc1F)C(=O)CCCNC(=O)c1ccc(Cl)cc1`, which “hERG current change (%, negative = inhibition) at 10uM” value is on record?
The value was -19.8%.

For `CC(C)OCCCNC(=O)C(=O)N/N=C/c1ccc(OCc2ccccc2)cc1`, which “hERG current change (%, negative = inhibition) at 10uM” value is on record?
The value was 13.2%.

For `COCCCN(CC(=O)Nc1ccc(N2CCOCC2)cc1)S(=O)(=O)c1ccc(Cl)cc1`, which “hERG current change (%, negative = inhibition) at 10uM” value is on record?
Its value is -1.73%.

For `COc1ccc(N2C(=O)C3C4C=CC(C5CC45)C3C2=O)c([N+](=O)[O-])c1` (stereo not shown), which “hERG current change (%, negative = inhibition) at 10uM” value is on record?
The value was 6.48%.

For `O=C1NC(=S)S/C1=C\c1ccc2ccccc2c1`, which “hERG current change (%, negative = inhibition) at 10uM” value is on record?
Its value is 18.7%.

How did the “hERG current change (%, negative = inhibition) at 10uM” value turn out when `Cc1cccc(NC(=O)c2ccc3c(Cl)c4c(nc3c2)CCCC4)n1` was run?
Its value is -1.74%.

`Cn1c(N)c(C(=O)COC(=O)/C=C/c2cccc(C(F)(F)F)c2)c(=O)n(C)c1=O` was tested. Which “hERG current change (%, negative = inhibition) at 10uM” value did it give?
The value was -2.29%.

How did the “hERG current change (%, negative = inhibition) at 10uM” value turn out when `Cc1ccccc1C(=O)Oc1ccccc1C(=O)N1CCOCC1` was run?
The value was -1.36%.

With `Cc1ccccc1Nc1nc(N)nc(-c2oc3ccccc3c2C)n1` as the compound, how does the “hERG current change (%, negative = inhibition) at 10uM” value read?
Its value is 4.69%.

Which “hERG current change (%, negative = inhibition) at 10uM” value does the source give for `C=CCn1c(=O)c(C(=O)NCc2ccc(Cl)cc2)c(O)c2ccccc21` here?
The value was 13.4%.

How did the “hERG current change (%, negative = inhibition) at 10uM” value turn out when `CCOc1ccc(CNC(=O)C2CC(=O)N(C3CCCC3)C2)cc1OC` (stereo not shown) was run?
Its value is 9.05%.

For `CCOC(=O)CN1C(=O)S/C(=C/c2cccc([N+](=O)[O-])c2O)C1=O`, which “hERG current change (%, negative = inhibition) at 10uM” value is on record?
The value was 9.42%.

For `Cc1cc(C)n(-c2nc(C(F)(F)F)nc3ccccc23)n1`, which “hERG current change (%, negative = inhibition) at 10uM” value is on record?
Its value is 13%.

For `COc1ccc(S(=O)(=O)N(C)c2ccc(C(=O)Nc3cccnc3)cc2)cc1`, which “hERG current change (%, negative = inhibition) at 10uM” value is on record?
The value was -40.3%.

With `COc1cc2c(cc1N/C=C(\C#N)c1nc(-c3ccc(F)cc3)cs1)oc1ccccc12` as the compound, how does the “hERG current change (%, negative = inhibition) at 10uM” value read?
Its value is -46.5%.

With `CCn1cc(S(=O)(=O)NCc2ccc(OC)cc2)cn1` as the compound, how does the “hERG current change (%, negative = inhibition) at 10uM” value read?
Its value is 4.14%.

`O=C(Nc1nc2ccccc2[nH]1)c1cccc(Cl)c1` was tested. Which “hERG current change (%, negative = inhibition) at 10uM” value did it give?
The value was 17.5%.

With `Cc1c(C(=O)N2CCCCC2)c(S(=O)(=O)NCc2ccccc2Cl)c(C)n1C` as the compound, how does the “hERG current change (%, negative = inhibition) at 10uM” value read?
Its value is 5.54%.

`Cc1nn2cc(-c3ccc(-c4ccccc4)cc3)nc2s1` was tested. Which “hERG current change (%, negative = inhibition) at 10uM” value did it give?
The value was 12.4%.

`COc1cccc(NC(=O)Cn2c3ccccc3c3nc4n(c(=O)c32)CCS4)c1` was tested. Which “hERG current change (%, negative = inhibition) at 10uM” value did it give?
The value was 0.357%.

`Cc1cc(C(=O)OCC(=O)NC(=O)c2cccn2C)c2ccccc2n1` was tested. Which “hERG current change (%, negative = inhibition) at 10uM” value did it give?
Its value is 15.7%.

How did the “hERG current change (%, negative = inhibition) at 10uM” value turn out when `NNc1nc2c(-c3cccc(C(F)(F)F)c3)nnn2c2ccccc12` was run?
Its value is 20.5%.

For `C/C(=N\NC(=O)Cc1ccc(Cl)cc1)c1ccccn1`, which “hERG current change (%, negative = inhibition) at 10uM” value is on record?
Its value is -14.6%.
